For one molecule, Kd results are on record in article PMC5468325 (2017).

The target of the assay is T1, Eu-INSL3 (Homo sapiens, UniProt P51460).
T1 chain 1: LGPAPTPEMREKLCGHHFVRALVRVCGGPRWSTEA
T1 chain 2: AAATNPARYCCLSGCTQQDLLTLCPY
Nature of the assay: saturation whole cell binding.

B1: RXFP2 (protein)
chain: MIVFLVFKHLFSLRLITMFFLLHFIVLINVKDFALTQGSMITPSCQKGYFPCGNLTKCLPRAFHCDGKDDCGNGADEENCGDTSGWATIFGTVHGNANSVALTQECFLKQYPQCCDCKETELECVNGDLKSVPMISNNVTLLSLKKNKIHSLPDKVFIKYTKLKKIFLQHNCIRHISRKAFFGLCNLQILYLNHNCITTLRPGIFKDLHQLTWLILDDNPITRISQRLFTGLNSLFFLSMVNNYLEALPKQMCAQMPQLNWVDLEGNRIKYLTNSTFLSCDSLTVLFLPRNQIGFVPEKTFSSLKNLGELDLSSNTITELSPHLFKDLKLLQKLNLSSNPLMYLHKNQFESLKQLQSLDLERIEIPNINTRMFQPMKNLSHIYFKNFRYCSYAPHVRICMPLTDGISSFEDLLANNILRIFVWVIAFITCFGNLFVIGMRSFIKAENTTHAMSIKILCCADCLMGVYLFFVGIFDIKYRGQYQKYALLWMESVQCRLMGFLAMLSTEVSVLLLTYLTLEKFLVIVFPFSNIRPGKRQTSVILICIWMAGFLIAVIPFWNKDYFGNFYGKNGVCFPLYYDQTEDIGSKGYSLGIFLGVNLLAFLIIVFSYITMFCSIQKTALQTTEVRNCFGREVAVANRFFFIVFSDAICWIPVFVVKILSLFRVEIPDTMTSWIVIFFLPVNSALNPILYTLTTNFFKDKLKQLLHKHQRKSIFKIKKKSLSTSIVWIEDSSSLKLGVLNKITLGDSIMKPVS
modifications: Eu-labeled INSL3
Molecule B1 returned a Kd of 1 nM.

Broadly, the Kd is the concentration at which binding is half-saturated. Low readings indicate a tighter complex, high ones a looser complex.
